Laboratory results from paper PMC4336329 (PLoS ONE, 2015).
The whole screen tested about 310,000 compounds, of which about 14,000 (4.5%) showed an effect of 50% or more. The effect is printed as a negative number. The list shows a part of the results.

The compounds below were run against human ether-à-go-go-related gene (hERG) potassium channel (human, UniProt Q12809) (assay: primary screen, population patch clamp on CHO cells stably expressing hERG).
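Also: peak tail current of the secondary pulse compared with the same well before compound.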

Chain of human ether-à-go-go-related gene (hERG) potassium channel (Q12809 whole entry, looked up): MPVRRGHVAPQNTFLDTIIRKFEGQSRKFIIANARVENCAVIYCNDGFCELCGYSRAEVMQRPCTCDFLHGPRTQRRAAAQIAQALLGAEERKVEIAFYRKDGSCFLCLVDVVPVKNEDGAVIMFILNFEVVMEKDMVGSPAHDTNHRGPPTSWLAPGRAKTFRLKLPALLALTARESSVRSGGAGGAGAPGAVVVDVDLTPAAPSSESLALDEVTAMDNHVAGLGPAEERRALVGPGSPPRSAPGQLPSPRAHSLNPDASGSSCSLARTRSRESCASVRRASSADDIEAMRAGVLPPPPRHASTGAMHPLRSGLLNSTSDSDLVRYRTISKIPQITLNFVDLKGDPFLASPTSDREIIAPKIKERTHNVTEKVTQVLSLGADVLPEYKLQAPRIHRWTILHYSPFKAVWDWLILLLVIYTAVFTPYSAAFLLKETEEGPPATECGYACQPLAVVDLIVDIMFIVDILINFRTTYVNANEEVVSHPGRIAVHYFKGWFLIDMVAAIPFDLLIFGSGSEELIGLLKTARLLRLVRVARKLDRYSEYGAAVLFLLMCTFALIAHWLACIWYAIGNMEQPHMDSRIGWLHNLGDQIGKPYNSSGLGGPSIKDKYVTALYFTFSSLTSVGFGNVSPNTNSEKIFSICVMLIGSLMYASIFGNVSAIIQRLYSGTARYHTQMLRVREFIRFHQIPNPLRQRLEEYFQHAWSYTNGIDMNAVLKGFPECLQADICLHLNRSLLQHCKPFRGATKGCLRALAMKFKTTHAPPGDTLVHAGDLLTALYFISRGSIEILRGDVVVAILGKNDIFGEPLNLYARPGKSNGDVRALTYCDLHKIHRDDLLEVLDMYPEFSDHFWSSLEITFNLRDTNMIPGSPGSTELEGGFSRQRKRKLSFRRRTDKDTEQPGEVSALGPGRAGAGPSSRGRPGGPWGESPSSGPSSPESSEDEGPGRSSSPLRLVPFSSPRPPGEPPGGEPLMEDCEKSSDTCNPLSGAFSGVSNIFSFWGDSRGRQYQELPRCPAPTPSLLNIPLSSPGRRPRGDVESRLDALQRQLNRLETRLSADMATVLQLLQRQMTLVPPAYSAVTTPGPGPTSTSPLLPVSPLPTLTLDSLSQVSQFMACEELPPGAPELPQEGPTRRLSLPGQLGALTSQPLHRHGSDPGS

How did the “hERG current change (%, negative = inhibition) at 10uM” value turn out when `COc1ccc(CC(NC(C)=O)C(=O)NC2CCN(c3c4c(nc5ncnn35)CCC4)CC2)cc1OC` (stereo not drawn) was run?
Its value is 8.39%.

Which “hERG current change (%, negative = inhibition) at 10uM” value does the source give for `O=C(c1n[nH]c(=O)c2ccccc12)N1CCN(c2ccccc2Cl)CC1` here?
Its value is -27.5%.

How did the “hERG current change (%, negative = inhibition) at 10uM” value turn out when `COc1ccc(NC(=O)c2cccnc2Cl)c(S(=O)(=O)N2CCOCC2)c1` was run?
Its value is -3.91%.

With `Cc1[nH]nc(SCC(=O)NCc2ccccc2)c1[N+](=O)[O-]` as the compound, how does the “hERG current change (%, negative = inhibition) at 10uM” value read?
The value was -0.419%.

How did the “hERG current change (%, negative = inhibition) at 10uM” value turn out when `Cc1ccc(Cl)cc1NC(=O)CSC(N)=O` was run?
Its value is 9.69%.

For `O=C(O)c1ccccc1C(=O)c1ccc(-c2ccccc2)cc1`, which “hERG current change (%, negative = inhibition) at 10uM” value is on record?
The value was 17.2%.

`COc1ccc(N(CC(=O)NCC2CCCO2)S(=O)(=O)c2ccc(C)cc2)cc1OC` (stereo not drawn) was tested. Which “hERG current change (%, negative = inhibition) at 10uM” value did it give?
The value was -3.96%.

`Cc1ccc(NC(=O)CCn2c(=O)c3cccn3c3ccccc32)c(C)c1` was tested. Which “hERG current change (%, negative = inhibition) at 10uM” value did it give?
The value was -31%.

Which “hERG current change (%, negative = inhibition) at 10uM” value does the source give for `COc1ccc(NC(=O)CC2(Cc3ccccc3)CCOC(C)(C)C2)cc1` (stereo not drawn) here?
Its value is -5.51%.

With `O=c1oc(-c2ccccc2[N+](=O)[O-])nc2ccccc12` as the compound, how does the “hERG current change (%, negative = inhibition) at 10uM” value read?
The value was -2.4%.

How did the “hERG current change (%, negative = inhibition) at 10uM” value turn out when `C[C@H]1CCC[C@]2(O[C@H](CCO)C[C@@H](O)[C@@H]2O)O1` was run?
The value was 1.77%.

How did the “hERG current change (%, negative = inhibition) at 10uM” value turn out when `CC(C)Cn1c(N)c(C(=O)COC(=O)c2cc(-c3ccccc3)nc3ccccc23)c(=O)n(C)c1=O` was run?
The value was -8.18%.

`CCOC(=O)/C(CCC[N+](C)(CC)CC)=N\O.[I-]` was tested. Which “hERG current change (%, negative = inhibition) at 10uM” value did it give?
The value was 22.2%.

How did the “hERG current change (%, negative = inhibition) at 10uM” value turn out when `N=c1c(S(=O)(=O)c2ccc(Br)cc2)cc2c(=O)n3ccccc3nc2n1C1CCCCC1` was run?
The value was 22.8%.

Which “hERG current change (%, negative = inhibition) at 10uM” value does the source give for `COc1ccc(C(=O)N/N=C\C(C)=C\c2ccccc2)cc1OC` here?
The value was -61.4%.

For `COc1ccc(Cl)cc1NC(=S)N(Cc1ccc(C(=O)O)cc1)Cc1ccc(OC)c(OC)c1`, which “hERG current change (%, negative = inhibition) at 10uM” value is on record?
Its value is 14.8%.

`CN1CCN(c2ccc(NC(=O)c3ccc(-c4ccccc4F)o3)cc2)CC1` was tested. Which “hERG current change (%, negative = inhibition) at 10uM” value did it give?
The value was -70%.

How did the “hERG current change (%, negative = inhibition) at 10uM” value turn out when `O=C(Oc1ccc2c3c(c(=O)oc2c1)CCC3)c1ccco1` was run?
Its value is -1.09%.

With `Cc1cc(C)cc(C(=O)NCCC(=O)NCc2cc(=O)n(C)c(=O)n2C)c1` as the compound, how does the “hERG current change (%, negative = inhibition) at 10uM” value read?
Its value is 20.5%.

`CCCS(=O)(=O)N1CCN(C(=O)COc2ccccc2)CC1` was tested. Which “hERG current change (%, negative = inhibition) at 10uM” value did it give?
Its value is -13.3%.

Which “hERG current change (%, negative = inhibition) at 10uM” value does the source give for `Cc1cc(NS(=O)(=O)c2ccc(NC(=S)NC(=O)c3ccc(F)cc3Cl)cc2)no1` here?
Its value is 3.81%.

How did the “hERG current change (%, negative = inhibition) at 10uM” value turn out when `Br.CC(C)(C)C(=O)Cn1c(=N)n(Cc2ccccc2)c2ccccc21` was run?
The value was -48.2%.

Which “hERG current change (%, negative = inhibition) at 10uM” value does the source give for `CNC(=O)CN(c1cc(OCCOC)c(Cl)cc1Cl)S(=O)(=O)c1ccccc1` here?
The value was 4.83%.

Which “hERG current change (%, negative = inhibition) at 10uM” value does the source give for `N#CCn1c2ccccc2c2nc3ccccc3nc21` here?
The value was 14.4%.

With `COC(=O)c1ccc(CN2C(=O)NC(c3ccccc3)(c3ccccc3)C2=O)o1` as the compound, how does the “hERG current change (%, negative = inhibition) at 10uM” value read?
Its value is -31.5%.

For `O=Cc1cccn1-c1ncc(Br)cn1`, which “hERG current change (%, negative = inhibition) at 10uM” value is on record?
Its value is 3.67%.

Which “hERG current change (%, negative = inhibition) at 10uM” value does the source give for `CCOC(=O)CC(=O)CSCC(=O)Nc1ccc(C)cc1` here?
The value was -6.11%.

For `CP(C)(=O)CCP(=O)(c1ccccc1)c1ccccc1`, which “hERG current change (%, negative = inhibition) at 10uM” value is on record?
Its value is 22%.

Which “hERG current change (%, negative = inhibition) at 10uM” value does the source give for `CCOCCCNS(=O)(=O)c1ccc(NC(=O)CN2C(=O)c3ccccc3C2=O)cc1` here?
The value was 11.6%.

For `CCCN(CCC)Cc1c(C(=O)N/N=C/c2ccsc2)nnn1-c1nonc1N`, which “hERG current change (%, negative = inhibition) at 10uM” value is on record?
The value was -14.6%.

Which “hERG current change (%, negative = inhibition) at 10uM” value does the source give for `CC1(C(=O)N2CCN(c3ccccc3)CC2)CC1(Cl)Cl` (stereo not drawn) here?
Its value is 6.47%.

With `CCCCCCOc1ccc(/C(C)=N/NC2=NCCN2)cc1` as the compound, how does the “hERG current change (%, negative = inhibition) at 10uM” value read?
The value was -19.9%.

`CCN(CC)C(=O)c1cc2cc([N+](=O)[O-])ccc2s1` was tested. Which “hERG current change (%, negative = inhibition) at 10uM” value did it give?
The value was -55.5%.

With `CCOc1ccc(C(C)=O)cc1COc1ccc(-c2nnco2)cc1` as the compound, how does the “hERG current change (%, negative = inhibition) at 10uM” value read?
Its value is 17.2%.

For `COc1ccc2c(c1OC)C(=O)N1c3ccccc3N=C(c3ccc([N+](=O)[O-])cc3)CC21` (stereo not drawn), which “hERG current change (%, negative = inhibition) at 10uM” value is on record?
The value was -38.7%.

`O=C(Nc1cc(-c2ccccc2)sc1C(=O)O)c1cccc(F)c1` was tested. Which “hERG current change (%, negative = inhibition) at 10uM” value did it give?
Its value is 33.5%.

With `CCCCSc1cc(C)nc(N)n1` as the compound, how does the “hERG current change (%, negative = inhibition) at 10uM” value read?
The value was -1.73%.

For `Cc1cccc(C(=O)N/C(=C\c2ccc(C)o2)C(=O)O)c1`, which “hERG current change (%, negative = inhibition) at 10uM” value is on record?
The value was 14.2%.

`CSc1cccc(NC(=O)NNC(=O)C2CCN(S(=O)(=O)N(C)C)CC2)c1` was tested. Which “hERG current change (%, negative = inhibition) at 10uM” value did it give?
Its value is 22.5%.

With `O=C(NCCn1cc(SCc2ccccc2)c2ccccc21)c1c(F)cccc1F` as the compound, how does the “hERG current change (%, negative = inhibition) at 10uM” value read?
The value was 0.607%.

With `Cc1ccccc1NC(=O)CSc1n[nH]c(-c2ccccn2)n1` as the compound, how does the “hERG current change (%, negative = inhibition) at 10uM” value read?
The value was -21.6%.

`COc1ccc(S(=O)(=O)N2CCCCC2)cc1NC(=O)CNc1ccccc1C(C)=O` was tested. Which “hERG current change (%, negative = inhibition) at 10uM” value did it give?
The value was -15.2%.

How did the “hERG current change (%, negative = inhibition) at 10uM” value turn out when `Cn1c(COc2ccc(F)cc2)nnc1SCC(=O)NC1CC1` was run?
Its value is -15.1%.

`Nc1nc(SCC(=O)NCc2ccccc2)[nH]c(=O)c1NC(=O)c1ccccc1F` was tested. Which “hERG current change (%, negative = inhibition) at 10uM” value did it give?
Its value is 22.4%.

For `COc1ccc(CCNC(=O)CCCOc2ccc(C)cc2)cc1OC`, which “hERG current change (%, negative = inhibition) at 10uM” value is on record?
The value was -4.77%.
